This is an account of results in PubChem BioAssay (NCI).

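Method: 48-hour compound exposure of cells in 96-well plates, five concentrations, linear interpolation of endpoints. Abbreviation: GI50, concentration required for 50% inhibition of growth. TGI marks complete inhibition of growth.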 Bounds are passed on as bounds.

The assay concerns NCI-H322M lung. In words: NCI tumour cell line growth inhibition, 48 h.
Consider `CCN(CC)CCCC(C)NCC(=O)NC(c1ccc2c(c1)OCO2)c1cc(Cl)c2cccnc2c1O` (stereo unspecified), for which the GI50 was 2.17 µM and the TGI was determined as 11.7 µM.
The like results for `Fc1cccc(Cl)c1/C=N/Nc1nc(N/N=C/c2c(F)cccc2Cl)nc(N2CCCCC2)n1` were, in that order, 4.12 µM and over 100 µM.
With `CCN1C(=O)N(CC)C2SC(N/N=C/c3ccc(OC)cc3)=NC21` (stereo unspecified), the GI50 was 0.698 µM and the TGI was over 100 µM.
